Data published in PubChem BioAssay AID504333 (National Center for Advancing Translational Sciences (NCATS), 2011).
The campaign covered roughly 360,000 compounds. About 16,000 (4.4%) were called active. This list was built around the results that the source calls inconclusive (neither active nor inactive); the mix of calls is not that of the screen. The call rests on the fitted dose curve; in most records, active means well fitted inhibition curve with a large enough effect; inconclusive means small, poorly fitted or top-dose-only effect; inactive means no such curve, though single readings can be large or run the other way. A potency beside an inconclusive call is a rough fit, not a confirmed value.
Further: nearly all actives have a fitted effect of over 60% in size.
On the % scale 0 is the no-effect control and ±100 the full control effect; potency means the concentration at half of the fitted maximal effect; tags describe the fitted curve by direction and shape.

These compounds were tested against Bromodomain adjacent to zinc finger domain protein 2B (Homo sapiens) (UniProt Q9UIF8) (assay: qHTS Assay for Inhibitors of BAZ2B). Settings: AlphaScreen BAZ2B-H3K14Ac peptide displacement; activity change, negative = inhibition: at 114 µM (top of the series).
Chain of UniProt Q9UIF8 (Q9UIF8 whole entry, looked up, the tested form may be a part): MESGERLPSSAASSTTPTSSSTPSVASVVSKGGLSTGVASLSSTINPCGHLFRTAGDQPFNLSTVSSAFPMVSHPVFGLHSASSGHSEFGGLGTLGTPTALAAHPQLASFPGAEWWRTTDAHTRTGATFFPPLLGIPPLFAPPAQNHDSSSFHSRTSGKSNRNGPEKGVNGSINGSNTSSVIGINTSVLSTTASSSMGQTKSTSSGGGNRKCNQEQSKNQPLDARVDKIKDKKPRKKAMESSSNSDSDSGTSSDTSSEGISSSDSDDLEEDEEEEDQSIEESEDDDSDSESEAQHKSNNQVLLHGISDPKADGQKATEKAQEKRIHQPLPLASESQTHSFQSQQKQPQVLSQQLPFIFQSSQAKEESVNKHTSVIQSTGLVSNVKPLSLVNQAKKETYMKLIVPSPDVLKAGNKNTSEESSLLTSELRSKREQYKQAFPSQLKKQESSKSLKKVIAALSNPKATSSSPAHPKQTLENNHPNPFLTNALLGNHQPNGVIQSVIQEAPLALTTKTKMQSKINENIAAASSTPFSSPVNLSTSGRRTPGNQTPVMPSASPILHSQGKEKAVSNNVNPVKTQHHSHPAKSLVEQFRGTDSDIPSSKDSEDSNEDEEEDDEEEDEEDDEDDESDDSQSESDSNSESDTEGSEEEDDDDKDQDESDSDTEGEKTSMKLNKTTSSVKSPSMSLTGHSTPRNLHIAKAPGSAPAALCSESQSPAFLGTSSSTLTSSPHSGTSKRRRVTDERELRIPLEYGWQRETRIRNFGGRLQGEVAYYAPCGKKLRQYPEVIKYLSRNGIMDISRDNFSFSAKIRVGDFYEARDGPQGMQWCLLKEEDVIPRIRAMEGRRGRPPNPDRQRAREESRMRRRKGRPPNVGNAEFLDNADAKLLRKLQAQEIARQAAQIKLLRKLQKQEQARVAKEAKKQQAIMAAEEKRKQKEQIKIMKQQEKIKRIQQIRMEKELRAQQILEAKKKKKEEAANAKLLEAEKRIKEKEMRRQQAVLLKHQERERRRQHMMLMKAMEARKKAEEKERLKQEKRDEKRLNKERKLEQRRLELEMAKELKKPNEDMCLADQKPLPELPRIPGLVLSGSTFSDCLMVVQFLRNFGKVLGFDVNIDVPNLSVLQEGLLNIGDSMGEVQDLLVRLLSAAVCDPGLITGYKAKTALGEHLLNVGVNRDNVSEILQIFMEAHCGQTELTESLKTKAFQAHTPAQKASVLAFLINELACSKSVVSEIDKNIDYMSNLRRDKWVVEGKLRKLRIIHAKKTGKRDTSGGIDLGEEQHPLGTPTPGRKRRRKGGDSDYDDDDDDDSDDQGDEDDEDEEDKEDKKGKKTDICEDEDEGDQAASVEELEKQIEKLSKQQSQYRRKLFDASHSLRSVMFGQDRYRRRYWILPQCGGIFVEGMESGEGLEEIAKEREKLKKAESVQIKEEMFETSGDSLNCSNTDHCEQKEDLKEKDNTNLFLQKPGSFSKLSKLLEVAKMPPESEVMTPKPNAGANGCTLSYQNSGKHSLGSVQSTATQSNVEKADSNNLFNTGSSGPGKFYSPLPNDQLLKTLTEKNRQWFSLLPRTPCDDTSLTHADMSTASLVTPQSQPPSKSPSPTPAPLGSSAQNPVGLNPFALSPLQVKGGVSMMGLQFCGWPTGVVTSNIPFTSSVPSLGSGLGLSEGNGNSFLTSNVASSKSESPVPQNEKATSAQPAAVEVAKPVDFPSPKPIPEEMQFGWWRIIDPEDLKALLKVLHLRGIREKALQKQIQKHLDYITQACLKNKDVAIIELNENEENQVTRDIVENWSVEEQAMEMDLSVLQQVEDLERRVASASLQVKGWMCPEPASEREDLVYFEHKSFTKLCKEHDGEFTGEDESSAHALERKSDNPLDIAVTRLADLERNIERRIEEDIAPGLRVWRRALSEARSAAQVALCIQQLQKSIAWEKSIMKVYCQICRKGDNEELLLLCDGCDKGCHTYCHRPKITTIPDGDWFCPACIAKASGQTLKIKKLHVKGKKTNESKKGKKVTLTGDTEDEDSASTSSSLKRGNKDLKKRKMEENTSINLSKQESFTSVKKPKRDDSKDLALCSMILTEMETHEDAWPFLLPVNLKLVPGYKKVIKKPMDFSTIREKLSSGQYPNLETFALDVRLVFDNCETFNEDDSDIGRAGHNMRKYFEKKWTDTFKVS
Outline: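 Compounds, titrated to a top concentration of 110 uM, were incubated 30 min at room temperature with preformed BAZ2B/acetyl-K14 H3 peptide complex (50 nM each). Proximity signal was measured by AlphaScreen after 20 min with beads.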
In the case of `COCCC(=O)N1CCC(Oc2ccc(C(=O)NC(C)CCn3cccn3)cc2)CC1` (centres undefined), the “activity change, negative = inhibition” value is reported as inactive: -3.04%.
With `Cc1ccc(C(=O)N2CCN(c3ccc([N+](=O)[O-])c(NCc4ccco4)c3)CC2)cc1` the Potency was inconclusive: 22.4 µM [inhibitor, partial curve].
With `O=C(Nc1cccc(O)c1)C(=O)Nc1ccccn1` the “activity change, negative = inhibition” value was inactive: -23.5%.
For `C=CCn1c(SCC(=O)NCCOC)nnc1-c1cc2c(s1)CCC(CC)C2` (centres undefined), the “activity change, negative = inhibition” value was inactive: -27.7%.
For `Cc1cccc(NC(=O)CCc2nc3sc4c(c3c(=O)[nH]2)CCCC4)n1`, the Potency was inconclusive: 50.1 µM [inhibitor, partial curve].
`O=C(NCCOc1ccccc1Cl)C(=O)c1c[nH]c2ccccc12` was tested, and the Potency was inconclusive: 28.2 µM [inhibitor, single point].
With `CC(=O)C1=C(O)C(=O)N(CC(=O)O)C1c1ccccc1Cl` (centres undefined) the Potency was active: 70.8 µM.
`O=[N+]([O-])c1ccc(CNc2cccc(Cl)c2)s1` was tested, and the Potency was inconclusive: 50.1 µM [inhibitor, partial curve].
With `c1ccc(OCCn2c(-c3ccco3)nc3ccccc32)cc1` the Potency was inconclusive: 50.1 µM [inhibitor, partial curve].
In the case of `COc1ccc(S(=O)(=O)N2CCN(Cc3ccc4c(c3)OCO4)CC2)c2ccccc12`, the “activity change, negative = inhibition” value is reported as inactive: 10.2%.
With `CCOC(=O)C1CCCN(C(=O)Cn2ncc3c(C)n(Cc4ccc(F)cc4)c(C)c3c2=O)C1` (centres undefined) the “activity change, negative = inhibition” value was inactive: 9.72%.
`CN(CC1CCOCC1)C(=O)CC1C(=O)NCCN1Cc1ccc(F)c(F)c1` (centres undefined) was tested, and the “activity change, negative = inhibition” value was inactive: 0.627%.
With `S=c1[nH]nc(-c2cccs2)n1/N=C/c1cn(-c2ccccc2)nc1-c1cccs1` the Potency was inconclusive: 35.5 µM [inhibitor, full curve].
With `Cn1c(OCc2ccco2)nc2c1c(=O)n(Cc1ccc(Cl)c(Cl)c1)c(=O)n2C` the “activity change, negative = inhibition” value was inactive: -33.1%.
In the case of `Cc1nc2cc(N3CCOCC3)c(NC(=O)C3CC3)cc2c(=O)n1Cc1ccccc1`, the Potency is reported as inconclusive: 79.4 µM [inhibitor, single point].
For `Cc1cc(C)c(S(=O)(=O)/N=C2\C=C(Nc3ccc(C(=O)O)cc3)C(=O)c3ccccc32)c(C)c1`, the Potency was active: 8.91 µM.
`CCN(CC)CCN1C(=O)C(=O)/C(=C(/O)c2c(C)[nH]c(C(=O)OC)c2C)C1c1cccc(OC)c1` (centres undefined) was tested, and the Potency was inconclusive: 89.1 µM [inhibitor, single point].
With `COc1ccc(CNC(=O)Cc2ccc(-c3ccccc3)cc2)cc1OC` the “activity change, negative = inhibition” value was inactive: -25%.
In the case of `[N-]=C=C1C(=S)NC(=O)[C@H]([n+]2ccccc2)[C@H]1c1ccc(Cl)cc1`, the Potency is reported as inconclusive: 79.4 µM [inhibitor, single point].
With `COc1ccc(C(c2nnnn2C2CCCCC2)N2CCN(c3ccccc3)CC2)cc1` (centres undefined) the Potency was inconclusive: 70.8 µM [inhibitor, single point].
In the case of `Cc1cc(C(=O)CN2C(=O)NC3(CCCc4sccc43)C2=O)c(C)n1-c1ccccc1` (centres undefined), the Potency is reported as inconclusive: 39.8 µM [inhibitor, full curve].
With `COc1cc(C2/C(=C(\O)c3ccc4c(c3)OCCO4)C(=O)C(=O)N2Cc2ccccc2)ccc1O` (centres undefined) the Potency was active: 50.1 µM.
`O=S(=O)(Nc1nnc(C2CCCCC2)s1)c1ccc(F)cc1` was tested, and the “activity change, negative = inhibition” value was inactive: -18.2%.
For `Oc1cccc(Nc2cc(-c3ccccc3)ncn2)c1`, the Potency was active: 50.1 µM.
With `COc1cc(/C=N/NC(=O)c2ccc(C)nc2)cc([N+](=O)[O-])c1O` the Potency was inconclusive: 79.4 µM [inhibitor, partial curve].
In the case of `CCCS(=O)(=O)N1CC(=O)N(c2cc(C)cc(C)c2)C(C)(C(=O)NC2CCCCCC2)C1` (centres undefined), the “activity change, negative = inhibition” value is reported as inactive: 3.46%.
`O=C(O)c1cccc(-n2cccc2/C=N/O)c1` was tested, and the Potency was active: 44.7 µM.
`CCOc1ccccc1C(=O)Nc1cc(-c2nc3cccnc3s2)ccc1C` was tested, and the Potency was active: 31.6 µM.
`CNc1ccccc1C(C)(C)c1cc(-c2cccc([N+](=O)[O-])c2)no1` was tested, and the Potency was inconclusive: 28.2 µM [inhibitor, partial curve].
With `COc1ccc(Nc2oc(-c3ccc(COc4ccccc4)o3)nc2C#N)cc1` the Potency was inconclusive: 89.1 µM [inhibitor, single point].
With `COc1cccc(NC(=S)/C(=C(\[O-])c2ccc(C)c([N+](=O)[O-])c2)[n+]2ccccc2)c1` the Potency was inconclusive: 89.1 µM [inhibitor, single point].
In the case of `Fc1ccccc1-c1csc(=Nc2cccnc2)n1CCCn1ccnc1`, the Potency is reported as active: 44.7 µM.
`O=C(NNS(=O)(=O)c1cc(Cl)cc(Cl)c1)c1sccc1-n1cccc1` was tested, and the Potency was inconclusive: 89.1 µM [inhibitor, single point].
`COc1ccc(NC(=O)c2ccco2)cc1NC(=O)c1cccc(OC(C)C)c1` was tested, and the “activity change, negative = inhibition” value was inactive: -34.2%.
For `COc1ccc(CNC(=O)CS(=O)CC(=O)O)cc1OC` (centres undefined), the Potency was inconclusive: 89.1 µM [inhibitor, single point].
With `COc1cc(NC(=O)c2cc([N+](=O)[O-])ccc2NC(=O)CNC2CCCCC2)cc(OC)c1` the Potency was inconclusive: 25.1 µM [inhibitor, full curve, poor fit].
In the case of `Cc1c(C)[n+](=O)c2c(n1[O-])CCC2`, the “activity change, negative = inhibition” value is reported as inactive: 4.08%.
For `O=C(O)COc1ccccc1C1Nc2ccccc2-c2nnc(SCc3ccc(Cl)cc3)nc2O1` (centres undefined), the Potency was inconclusive: 79.4 µM [inhibitor, single point].
`COC(=O)[C@@]1(Cc2ccc(OC)cc2)[C@H]2c3cc(C(=O)N4CCCC4)n(CCSCCO)c3C[C@H]2CN1C(=O)c1ccccc1` was tested, and the Potency was inconclusive: 50.1 µM [inhibitor, partial curve].
`COC(=O)c1nn(-c2ccc(OC)cc2)c(=O)c2c(N)sc(C)c12` was tested, and the Potency was inconclusive: 79.4 µM [inhibitor, single point].
In the case of `O=C1/C(=C\c2ccccn2)SC(=S)N1c1ccc(S(=O)(=O)Nc2nccs2)cc1`, the Potency is reported as active: 50.1 µM.
For `Cc1cc(C)c(S(=O)(=O)N2CCC(N3CCN(Cc4ccc(F)cc4)C(=O)C3=O)CC2)c(C)c1`, the “activity change, negative = inhibition” value was inactive: -9.82%.
With `Cc1ccc(S(=O)(=O)n2ccc3c(OCCOCCSCC(NC(=O)OC(C)(C)C)C(=O)O)cccc32)cc1` (centres undefined) the Potency was active: 50.1 µM.
`CC(C)CCNC1c2ccccc2C(=O)N1Cc1ccccc1` (centres undefined) was tested, and the Potency was inconclusive: 89.1 µM [inhibitor, single point].
In the case of `CC(C)Cn1c(Br)nc2c1c(=O)n(CCC#N)c(=O)n2C`, the Potency is reported as inconclusive: 89.1 µM [inhibitor, single point].
`Nc1nc(N)c2nc(CNc3ccc(C(=O)NC(CCC(=O)O)C(=O)O)cc3)cnc2n1` (centres undefined) was tested, and the “activity change, negative = inhibition” value was inactive: -34.5%.
With `Cc1sc(NC(=O)c2sc3nc4c(C)cccc4cc3c2N)c(C#N)c1C` the Potency was inconclusive: 89.1 µM [inhibitor, single point].
`Clc1ccc2nc(CN3CCCCCC3)cn2c1` was tested, and the Potency was inconclusive: 79.4 µM [inhibitor, single point].
With `CCOC(=O)CC(C)(C)/C(C)=N/Nc1ccc([N+](=O)[O-])cc1[N+](=O)[O-]` the Potency was active: 7.08 µM.
With `CCOC(=O)c1ccccc1NC(=O)c1nn(-c2ccc(C)cc2)c(=O)n(C)c1=O` the “activity change, negative = inhibition” value was inactive: 15.1%.
For `Cc1cc([N+](=O)[O-])nn1CC(=O)NCCCn1ccnc1`, the Potency was inconclusive: 79.4 µM [inhibitor, partial curve].
`CC(=O)c1ccc(N2CCN(S(=O)(=O)c3c(C(=O)N4CCCCC4)c(C)n(C)c3C)CC2)cc1` was tested, and the Potency was inconclusive: 70.8 µM [inhibitor, single point].
With `CCOc1cccc(C(=O)Nc2ccc(-c3nc4cc(C)cc(C)c4o3)cc2)c1` the “activity change, negative = inhibition” value was inactive: 1.89%.
In the case of `CN(C(=O)CN1CCN(c2ccccc2F)CC1)C1CCCc2ccccc21` (centres undefined), the Potency is reported as inconclusive: 79.4 µM [inhibitor, single point].
In the case of `O=C(C1=C[C@H](c2ccccc2)C[C@H](OCc2ccc(CO)cc2)O1)N1CCN(Cc2ccccc2)CC1`, the Potency is reported as inconclusive: 56.2 µM [inhibitor, partial curve].
In the case of `Cn1c(SCC(=O)c2ccccc2F)nnc1C1CC1`, the Potency is reported as inconclusive: 89.1 µM [inhibitor, single point].
For `COc1cccc(NC(=O)c2sc3nc(C)c(C(=O)Nc4ccc(C)cc4C)c(-c4ccc(C)o4)c3c2N)c1`, the “activity change, negative = inhibition” value was inactive: -13.8%.
With `CCC1=C(OC(=O)N(CC)CC)N2C(=O)OC(=NCCc3c[nH]c4ccccc34)[C@]2(C)[C@H]2C1=CC[C@H]1C(=O)NC(=O)[C@H]12` the Potency was inconclusive: 70.8 µM [inhibitor, single point].
With `O=[N+]([O-])c1ccccc1/C=N/N1CCN(Cc2ccccc2)CC1` the Potency was active: 28.2 µM.
With `O=C(NCCNc1nccc(C(F)(F)F)n1)c1cccc(C(F)(F)F)c1` the “activity change, negative = inhibition” value was inactive: 0.849%.
`COc1ccc(N2CCN(C(=O)COC(=O)Cc3c(F)cccc3Cl)CC2)cc1` was tested, and the Potency was inconclusive: 79.4 µM [inhibitor, single point].
In the case of `CCOc1ccccc1NC(=O)NCc1noc2ccc(C)cc12`, the Potency is reported as inconclusive: 89.1 µM [inhibitor, single point].
In the case of `Fc1ccc(C(c2ccc(F)cc2)N2CCN(C/C=C/c3ccccc3)CC2)cc1`, the Potency is reported as inconclusive: 39.8 µM [inhibitor, partial curve].
For `COc1ccc(C2c3sc(=O)[nH]c3SC3C(=O)N(c4ccccc4)C(=O)C32)cc1` (centres undefined), the Potency was inconclusive: 50.1 µM [inhibitor, partial curve].
`COc1ccc(NC(=O)C2CC(=O)n3cnnc3S2)cc1` (centres undefined) was tested, and the “activity change, negative = inhibition” value was inactive: -33.5%.
In the case of `COCCN(C(=O)COC(=O)/C=C/c1ccco1)c1c(N)n(Cc2ccccc2)c(=O)[nH]c1=O`, the Potency is reported as inconclusive: 89.1 µM [inhibitor, single point].
In the case of `COc1ccc(Oc2nc(-c3ccncc3)nc3ccccc23)cc1`, the “activity change, negative = inhibition” value is reported as inactive: 2.37%.
In the case of `Cc1ccc(O)c(Nc2c3ccccc3nc3ccccc23)c1`, the Potency is reported as active: 35.5 µM.
With `O=C(c1ccco1)N1CCN(S(=O)(=O)c2ccc([N+](=O)[O-])cc2)CC1` the “activity change, negative = inhibition” value was inactive: -10.5%.
